± gives the standard deviation of the averaged measurements. The list shows a part of the results.
Test system: PfAP2-LT AP2 domain (GST-tagged)
Assay: gcPBM binding intensity (ln(normalized median fluorescence intensity)); higher = stronger DNA binding
Summary of the method: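 GST-tagged P. falciparum DNA-binding domains, expressed in E. coli (about 25 μg on average), were applied for 1 h to an Agilent 4 × 180k array of primer-extended double-stranded 36-bp intergenic genomic probes plus negative controls. The binding buffer was 1× PBS with 1% milk, 0.2 mg/ml BSA, 0.5% salmon testes DNA and 0.03% Triton X-100. Bound protein was detected with Alexa488 anti-GST antibody and scanned at 488 nm. Binding intensity is the highest Masliner-normalised natural-log median intensity across replicate spots of either probe orientation.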

Row | Sequence | gcPBM binding intensity (ln)
1 | CAAAATTTATATAATAGTACACATGATCTTTTTTCT [XGTACX_site8956] | 8.62 ± 0.5
2 | TATATATATATATAATGTACGAATAGAAAAAAAAAA [XGTACX_site7231] | 8.79 ± 0.44
3 | GATACAAAATGGGGAACACACACATATATATATATA [CACACA_site9278] | 10.1 ± 0.22
4 | AAAAGTGTATGTAGGTGTACTTTTTATTTCTTCTTT [XGTACX_site8819] | 8.91 ± 0.38
5 | TAAAGGCAAACAAACACACACACATATATACCTATA [CACACA_site7078] | 9.78 ± 0.18
6 | ATAACAAAATAAAACACACACACAAATGTACCTATA [CACACA_site7190] | 9.75 ± 0.3
7 | TATTTATAAATATAAACACACAACATTATATGCATA [CACACA_site5748] | 8.8 ± 0.4
8 | TACATATTTGTATATGCACACATAAATTTTTCCATT [CACACA_site9148] | 8.96 ± 0.41
9 | AAATATTTATACCACACACACATACCTCTATTTGTA [CACACA_site6957] | 9.71 ± 0.18
10 | AATGGATTAGCTAGCACACACAAAAAAAAAAAAAAA [CACACA_site3031] | 9.14 ± 0.58
11 | TAAATATAGGGTAATAGTACATAATTATATTCTTTT [XGTACX_site3883] | 8.65 ± 0.49
12 | TTTTTTTTTTTTTAATGTACCCATGGGCACATAGGT [XGTACX_site486] | 8.31 ± 0.47
13 | TATATTTATATATTAGTGCACTTTTTGTTAATTTTT | 8.81 ± 0.52
14 | ATAGCCAAAAATCATGCACACCTAAAAAAAAAAAAA [CACACA_site8826] | 8.9 ± 0.48
15 | TATATTTATGTATATGTGCACATAAATTTAAGAATG [GTGCAC_site9512] | 8.71 ± 0.4
16 | ATTTTTAATCATTTACAACCTAGTGATTATACAAAT [CACACA_negctrl_site1089] | 8.56 ± 0.49
17 | CGTATGCGTATATACACACCCACGTATATATATAAA [CACACA_site3200] | 8.88 ± 0.39
18 | ATATAATAATTGTACACATGCACACACAAATATTAT [TGCATGCA_site204] | 9.47 ± 0.34
19 | TTCATTTTAATAATATGTACATAATATATTTAAAAA [XGTACX_site634] | 8.16 ± 0.36
20 | GTATATATATTTGTACGTACATATTGTTGTAAACAC [XGTACX_site8833] | 9.14 ± 0.52
21 | AAGAGAGACATCAACACACATACGTATGTATAGAAA [CACACA_site1397] | 9.23 ± 0.59
22 | TTTTTTATTGTGATACGTATATTATTTTATGATTAA [GTGCAC_negctrl_site202] | 8.7 ± 0.41

Row | Sequence | gcPBM binding intensity (ln)
23 | GGGGGTAGGGGAAGAAGTACAATGATCACTACAGTA [XGTACX_site1169] | 9.045 ± 0.035
24 | ATGTAAATGTTATTATGTACATATTTATTCTTCAAA [XGTACX_site7377] | 8.71 ± 0.45
25 | TTAAGTCATAAATAAAGTACATAAATATAATATATA [XGTACX_site6304] | 8.66 ± 0.35
26 | TCCAATTAAATATATGAACACACATGTGAACTTTCT [CACACA_site9318] | 8.88 ± 0.44
27 | TTAAAGCACCCATGCACACACACAAGGGAAAAGAAA [CACACA_site4289] | 9.49 ± 0.4
28 | AAGGAATATTAAGTGGGTACTAAAAAAAAATTAATT [XGTACX_site331] | 8.59 ± 0.57
29 | TTTTTAATTAACTTTGTAAACTTATATATATATATA [TGCATGCA_negctrl_site311] | 8.71 ± 0.11
30 | GAAGTAGATGGAAAAGTGCACTGTAATGGTTATATT | 9.02 ± 0.42
31 | TGTATATAGAAACATACACACATATTAATTTTACAT [CACACA_site3126] | 8.94 ± 0.44
32 | TTTTTTATTAAAAGCGAAAAAAATGAAAACTTTTTT [GTGCAC_negctrl_site605] | 7.96 ± 0.45
33 | GACCCAATGAAAAGGTCACACATTTTTTCTTTTCGA [CACACA_site5074] | 8.53 ± 0.52
34 | AAAAATAAAAAGAATTGTACATATAAATCATATACA [XGTACX_site6860] | 8.64 ± 0.38
35 | TAAAAATATATAAACAGTACATAAATTAAATAAATA [XGTACX_site6962] | 8.74 ± 0.45
36 | TTTTTTCTTTAATACTCAATATGATAAAAGTAACAC [XGTACX_negctrl_site163] | 8.22 ± 0.39
37 | AAAGTTTTTACCAAGTGTACATATATATATATATAT [XGTACX_site5786] | 9.6 ± 0.057
38 | GTTAAAATTTGTCAATGTACAGAAATAATAAAAAAA [XGTACX_site1879] | 8.6 ± 0.54
39 | GTTTATTTATTTTATGTGCACATATAACAAAAAAAA | 8.55 ± 0.45
40 | TATTTTTTTTAGCGTACATGCAAAAAAAAAAAAAAA [TGCATGCA_site555] | 8.22 ± 0.39
41 | TATTAAATGAAACAAACACACATAGCCTTTAAATAT [CACACA_site1560] | 8.94 ± 0.36
42 | ATTTTTTTTTTTATAGTGGAACCACATTTGCCATTT [CACACA_negctrl_site1247] | 8.77 ± 0.5
43 | TTAGGACAAAAAAAAATAAAAATAAAATAAAATAAT [CACACA_negctrl_site1613] | 8.59 ± 0.53
44 | ATAAAATAAAACAGAGCACACATTTTATTTACATTC [CACACA_site696] | 8.88 ± 0.42

Reference: the supplement of paper PMC11417369
